Test results: article PMC9585968
These are yes or no findings as the source states them, for the method shown. For some of these results: Binding seen in cells or lysates may run through a third protein. Some results given as binding are weak or reduced against the parent protein; the word gives no strength. Where a sequence is shown, tags or fusion partners need not be part of it. One block for each binder: values may come before it.

What was measured:
[1] = molecular target: T1, LSM8-GFP (N. benthamiana) (Arabidopsis) (UniProt Q8VYI0); test: FRET or BRET; FLIM-FRET in N. benthamiana leaf epidermis cells; GFP fusions as donors, mCherry fusions as acceptors
T1 sequence: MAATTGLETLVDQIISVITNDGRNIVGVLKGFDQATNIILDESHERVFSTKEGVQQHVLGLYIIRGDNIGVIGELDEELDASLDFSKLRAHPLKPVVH

[2] = molecular target: T2, LSM8, yeast two-hybrid fusion (Arabidopsis) (UniProt Q8VYI0); test: two-hybrid; GAL4 system (pGBT-9, pGAD424) in S. cerevisiae AH109; growth of serial dilutions on SD-LWH; three colonies for each interaction
T2 sequence: T1 sequence

[3] = molecular target: T3, STA1 (STABILIZED1), yeast two-hybrid fusion (Arabidopsis) (UniProt Q9ZT71); test: as above
T3 sequence: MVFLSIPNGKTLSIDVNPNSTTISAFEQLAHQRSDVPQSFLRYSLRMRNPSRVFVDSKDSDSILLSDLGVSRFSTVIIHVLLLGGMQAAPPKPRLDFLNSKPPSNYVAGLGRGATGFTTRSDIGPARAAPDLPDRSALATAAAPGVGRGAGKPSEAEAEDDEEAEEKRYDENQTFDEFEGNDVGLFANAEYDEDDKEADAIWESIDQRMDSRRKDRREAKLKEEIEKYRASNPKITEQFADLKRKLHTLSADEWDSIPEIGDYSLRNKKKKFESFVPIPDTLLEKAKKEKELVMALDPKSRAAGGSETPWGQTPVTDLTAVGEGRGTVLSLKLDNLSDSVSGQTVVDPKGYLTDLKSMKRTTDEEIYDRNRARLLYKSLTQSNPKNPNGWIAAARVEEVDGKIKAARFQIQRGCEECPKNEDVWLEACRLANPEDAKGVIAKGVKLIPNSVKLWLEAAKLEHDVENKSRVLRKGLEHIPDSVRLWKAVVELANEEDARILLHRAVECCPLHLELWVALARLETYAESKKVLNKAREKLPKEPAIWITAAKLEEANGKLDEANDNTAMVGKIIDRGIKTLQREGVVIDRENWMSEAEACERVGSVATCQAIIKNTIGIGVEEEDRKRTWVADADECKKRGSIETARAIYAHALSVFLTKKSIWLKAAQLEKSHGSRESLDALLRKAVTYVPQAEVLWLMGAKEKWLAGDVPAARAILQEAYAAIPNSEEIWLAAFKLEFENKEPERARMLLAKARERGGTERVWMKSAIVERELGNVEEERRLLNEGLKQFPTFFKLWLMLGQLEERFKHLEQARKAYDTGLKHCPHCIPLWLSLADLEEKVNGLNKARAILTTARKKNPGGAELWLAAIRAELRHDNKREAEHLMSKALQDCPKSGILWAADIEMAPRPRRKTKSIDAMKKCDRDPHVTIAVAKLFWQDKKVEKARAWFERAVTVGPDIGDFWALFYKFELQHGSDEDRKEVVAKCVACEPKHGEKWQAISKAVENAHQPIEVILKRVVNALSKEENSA

[4] = molecular target: T4, nYFP-LSM1a (Arabidopsis) (UniProt Q945P8); test: split reporter; BiFC with YFP halves, transient expression in N. benthamiana leaf epidermal cells, confocal microscopy 3 d after agroinfiltration
T4 sequence: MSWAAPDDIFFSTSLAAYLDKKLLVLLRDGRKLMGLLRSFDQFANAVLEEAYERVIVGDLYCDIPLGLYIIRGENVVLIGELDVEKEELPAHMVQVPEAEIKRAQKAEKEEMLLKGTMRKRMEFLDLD

[5] = molecular target: T5, cYFP-LSM1a (Arabidopsis) (UniProt Q945P8); test: as above
T5 sequence: T4 sequence

[6] = molecular target: T6, LSM8-mCherry (Arabidopsis) (UniProt Q8VYI0); test: FRET or BRET; FLIM-FRET in N. benthamiana leaf epidermis cells; GFP fusions as donors, mCherry fusions as acceptors
T6 sequence: T1 sequence

B1: LSM2-mCherry (protein, UniProt Q1H595 1-93)
chain: MLFFSYFKDLVGQEVTVELKNDLAIRGTLHSVDQYLNIKLENTRVVDQDKYPHMLSVRNCFIRGSVVRYVQLPKDGVDVDLLHDAARREARGG
binding [1]: binds

B2: LSM2, yeast two-hybrid fusion (protein, UniProt Q1H595 1-93)
chain: B1 chain
binding [2]: binds

B5: nYFP-MDF (protein, UniProt Q9LFE0 1-820)
chain: MEVEKSKSRHEIREERADYEGSPVREHRDGRRKEKDHRSKDKEKDYDREKIRDKDHRRDKEKERDRKRSRDEDTEKEISRGRDKEREKDKSRDRVKEKDKEKERNRHKDRENERDNEKEKDKDRARVKERASKKSHEDDDETHKAAERYEHSDNRGLNEGGDNVDAASSGKEASALDLQNRILKMREERKKKAEDASDALSWVARSRKIEEKRNAEKQRAQQLSRIFEEQDNLNQGENEDGEDGEHLSGVKVLHGLEKVVEGGAVILTLKDQSVLTDGDVNNEIDMLENVEIGEQKRRNEAYEAAKKKKGIYDDKFNDDPGAEKKMLPQYDEAATDEGIFLDAKGRFTGEAEKKLEELRKRIQGQTTHTFEDLNSSAKVSSDYFSQEEMLKFKKPKKKKQLRKKDKLDLSMLEAEAVASGLGAEDLGSRKDGRRQAMKEEKERIEYEKRSNAYQEAIAKADEASRLLRREQVQPFKRDEDESMVLADDAEDLYKSLEKARRLALIKKEEAGSGPQAVAHLVASSTNQTTDDNTTTGDETQENTVVFTEMGDFVWGLQRENDVRKPESEDVFMEEDVAPKAPVEVKEEHPDGLTEVNDTDMDAAEDSSDTKEITPDENIHEVAVGKGLSGALKLLKDRGTLKEKVEWGGRNMDKKKSKLVGIVDDDGGKESKDKESKDRFKDIRIERTDEFGRTLTPKEAFRLLSHKFHGKGPGKMKEEKRMKQYQEELKLKQMKNSDTPSQSVQRMREAQAQLKTPYLVLSGHVKPGQTSDPQSGFATVEKDVPGSLTPMLGDRKVEHFLGIKRKSEPGNSDTPPKRPKP
binding [5]: no binding

Next, values leading:

binding [2]: no binding
binding [3]: binds
B3: MDF, yeast two-hybrid fusion (protein, UniProt Q9LFE0 1-820)
chain: B5 chain

binding [4]: no binding
B4: cYFP-MDF (protein, UniProt Q9LFE0 1-820)
chain: B5 chain

binding [6]: no binding
B6: MDF-GFP (protein, UniProt Q9LFE0 1-820)
chain: B5 chain
